PubChem BioAssay AID1918933 (Molecular Pharmacology Branch, DTP, NCI, 2023)
Not every entry of the source has a single result; some have several. Only these are listed. There may be further records. Values given together repeat one measurement (runs, samples, wells, individuals or studies). Additions like (4×) count equal records among those shown. Marks such as [2022-09] give the month of the run. One block for each compound: values may come before it.

Tested on: 186277-243-T-J2-PDC complex spheroid viability
Test: Anticancer human tumor 186277-243-T-J2-PDC patient-derived colon adenocarcinoma cell line growth inhibition
Settings: for viability, T/C: stronger effect = lower value
From the text: Multicellular complex tumor spheroid response to LSD1 Inhibitor Iadademstat in combination with a variety of drugs and investigational agents in selected tumor cell lines
The current study was undertaken to assess response to LSD1 inhibitors in combination with standard-of-care drugs and investigational agents in solid tumor complex spheroid models as well as in the K-562 leukemia. Complex spheroids include a stromal component modeled by human endothelial cells (HUVEC) and fibroblasts modeled by human mesenchymal stem cells (MSCs). The concentration ranges selected for each drug and investigational agent were based upon clinically achievable concentrations if the clinical Cmax of the agent was known.
Compounds. The drugs and investigational agents used in this study are listed on Table 1. All of the agents used, including staurosporine (NSC755774) and gemcitabine (NSC613327), were obtained from the Developmental Therapeutics Program, NCI. FDA-approved anticancer drugs are available from the NCI at http://dtp.nci.nih.gov/branches/dscb/oncology_drugset_explanation.html. Drugs and investigational agents were >95% pure by proton nuclear magnetic resonance (NMR) and liquid chromatography/mass spectrometry (LC/MS). Stock solutions were prepared at 400x in DMSO, stored at -70 degrees C, and diluted in fresh medium prior to their use. The final concentration of DMSO in cell culture wells never exceeded 0.25% (v/v). The FDA-approved anticancer drug set is available from the Developmental Therapeutics Program at https://dtp.cancer.gov/organization/dscb/obtaining/available_plates.htm. All drugs and investigational agents were tested over a range starting from a high concentration at or near the clinical Cmax and decreasing in half-log increments. If the clinical Cmax for an agent had not been determined, the highest concentration tested was 10 microM.
Cell Lines. The patient-derived cancer cell (PDC) lines: 292921-168-R-J2-PDC, K24384-001-R-PDC, and 521955-158-R2-J5-PDC pancreatic carcinomas, 556581-035-R-J1 ovarian carcinoma, 324938-238-R-J1-PDC, 855422-203-R-J1-PDC and 883617-216-R-J1-PDC urothelial bladder carcinomas, 743489-274-T-PDC renal cell carcinoma, 138582-R-J1 Merkel cell tumor, K60290-347-R-J1 and K57222-313-R-J1-PDC glioblastomas, 653999-131-R-J2-PDC, LG0703-F948-PDC, and 349418-098-R-PDC non-small cell lung carcinomas, 885512-296-R-J2-PDC, 171881-019-R-J1-PDC breast carcinomas and 186277-243-T-J2-PDC and 233499-124-R-J2-PDC colon carcinomas were obtained from the NCI Patient-Derived Models Repository (PDMR, https://pdmr.cancer.gov). The established cell lines NCI/ADR-RES (RRID:CVCL_14520 and OVCAR-5 (RRID:CVCL_1628) ovarian carcinomas, 786-O (RRID:CVCL_1051) and A498 (RRID:CVCL_A498) renal cell carcinoma, NCI-H211 (ATCC, cat. CRL-5824; RRID:CVCL_1529), NCI-H196 (ATCC, cat. CRL-5823, RRID:CVCL_1509), SW 1271 (ATCC, cat. CRL-2177, RRID:CVCL_1716) and NCI-H1876 (ATCC, cat. CRL-5902, RRID:CVCL_1503) small cell lung carcinomas, MDA-MB-231 (RRID:CVCL_0062) and MDA-MB-468 (RRID:CVCL_0419)breast carcinomas (10-12). Pooled donor human umbilical vein endothelial cells (HUVEC, Lonza, cat. CC-2519) and human mesenchymal stem cells (hMSC, Lonza, cat. PT-2501) were purchased from Lonza (Walkersville, MD).
Cell Culture. All cells were maintained in an incubator at 37 degrees C and 5% CO2 with 95% humidity. The PDC lines were cultured according to standard operating procedures established by the NCI PDMR (https://pdmr.cancer.gov). Briefly all PDCs were thawed and cultured in Matrigel-coated flasks prepared with a working solution of 1X Ham's F-12 nutrient mix, without supplementation (Invitrogen, Waltham, MA, cat. 11765054), 100 U/mL penicillin-streptomycin (Invitrogen, cat. 15140122), and 2.5% Matrigel (Corning Inc., Corning, NY, cat. 354248) for the first three passages. […]
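Note: 7 day exposure to compounds.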
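Throughout, for viability, T/C: 100% = DMSO vehicle control viability.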

IC50 (compound alone): 13.8 nM [2022-01] and > 1 µM [2022-02]
SMILES: COc1cc(Nc2ncc3c(n2)-c2ccc(Cl)cc2C(c2c(F)cccc2OC)=NC3)ccc1C(=O)O
viability, T/C (compound alone 0.316 µM): 0.36% [2022-01] and 106% [2022-02] | viability, T/C (compound alone 1 µM): 0.07% [2022-01] and 95.3% [2022-02]

SMILES: NC1CCC(NC2CC2c2ccccc2)CC1 (configuration not stated)
viability, T/C (compound alone 0.1 µM): 107, 99.7, 94.7, 112, 102, 111, 115 (3×), 118 (3×), 106 (2×), 116, 86, 113, 97.4, 97.7, 119, 97.2, 105, 95.9, 122, 93.9% | viability, T/C (compound alone 1 µM): 112 (2×), 94.9, 98.4, 97, 114 (3×), 107, 115 (3×), 103 (2×), 111 (2×), 118 (2×), 108, 110 (2×), 98.2, 124, 101, 96.9% | viability, T/C (compound alone 3.16 µM): 111 (3×), 97.7, 107 (4×), 108 (2×), 117 (2×), 118, 120, 112 (2×), 105, 91.2, 110 (3×), 116, 102, 132, 119% | viability, T/C (compound alone 10 µM): 103 (2×), 99.1, 105 (5×), 110, 114 (2×), 112, 116, 97.9, 87.1, 113, 107 (4×), 99.9, 120, 122%

SMILES: NC1CC1c1ccc(-c2cccc(O)c2)cc1 (configuration not stated)
viability, T/C (compound alone 1 µM): 106 (5×), 104 (4×), 112 (2×), 109, 119, 100, 116, 102, 105 (2×), 113 (2×), 89.4, 99.2, 114, 94.1, 96.1% | viability, T/C (compound alone 10 µM): 101 (4×), 113 (2×), 104 (2×), 110, 106 (2×), 98.2, 94.9, 97.7, 94.7, 124, 115, 92.8, 112, 99.2, 97.3, 108, 105, 94.4%

SMILES: O=C(C=Cc1cccc(S(=O)(=O)Nc2ccccc2)c1)NO
viability, T/C (compound alone 3 µM): 3.15% [2022-01] and 99.2% [2022-02]

SMILES: CC(C)CC(NC(=O)C(Cc1ccccc1)NC(=O)c1cnccn1)B(O)O (configuration not stated)
viability, T/C (compound alone 0.001 µM): 100% [2022-01] and 1.72% [2022-02] | viability, T/C (compound alone 0.00316 µM): 43.1% [2022-01] and 0.23% [2022-02]
